Out of some 52,000 compounds screened, about 1,700 (3.3%) were called active. No stated cut-off is given here; in the data, active means survival mostly below about 52% (no sharp cut-off); inactive means mostly above about 56%. This is one part of the list.
What follows are molecules tested on Wild type (assay: S. aureus survival, RN4220 and DeltatarO strains – OD600, teichoic acid synthesis inhibitors, primary screen (AID 463173)). Settings: S. aureus RN4220 wild type/DeltatarO growth, OD600, 18 h, hits give low values, screened at 18.75 µg/mL (by protocol).

SMILES	survival
Cc1ccc(CC(=O)NC2CCSC2=O)cc1 (centres undefined)	inactive: 103%
COc1ccc(-n2nc(C(=O)Nc3cccc(C)n3)c3c4ccccc4n(C)c3c2=O)cc1	inactive: 69%
CC(=O)c1ccc(N2CCN(c3ncnc4c3cnn4C)CC2)cc1	inactive: 83%
Cc1ccc2c(c1)-c1ncc(C(=O)c3cc(Br)ccc3O)cc1CO2	inactive: 56%
Cc1cccc(NC(=O)c2oc3ccc(S(=O)(=O)N4CCC5(CC4)OCCO5)cc3c2C)c1C	inactive: 135%
Cc1cc(Nc2ccccc2O)c2ccccc2n1	inactive: 104%
Cc1nc(-c2ccccc2)cc(=O)[nH]1	inactive: 115%
CC(C)C(c1nnnn1C1CCCC1)N1CCN(C(=O)c2ccco2)CC1 (centres undefined)	inactive: 102%
Cc1cc(C)cc(NC(=O)Cn2c(=O)n(Cc3ccc4c(c3)OCO4)c(=O)c3oc4ccccc4c32)c1	inactive: 81%
N#CCSc1nc2ccccc2c(=O)n1-c1ccccc1	inactive: 117%
Cc1cccc(CNC(=O)Cn2ccc3cc(S(=O)(=O)N4CCC(C)CC4)ccc32)c1	inactive: 67%
O=C(Cn1c(=O)n(Cc2nc(-c3ccccc3)no2)c(=O)c2cc3c(cc21)OCO3)Nc1cccc(C(F)(F)F)c1	inactive: 77%
COc1ccc(-c2ccc(CCC(=O)O)n2-c2cc(Cl)ccc2O)cc1	inactive: 68%
COc1ccccc1-c1cc(C(F)(F)F)nc(S(=O)(=O)CCCC(=O)Nc2ccc(F)cc2F)n1	inactive: 84%
O=C(c1cnn2c1NC(c1cccs1)CC2C(F)(F)F)N1CCSCC1 (centres undefined)	inactive: 98%
COc1cccc(C2CC(=O)Nc3c2c(=O)n(C)c2nc4ccccc4n32)c1 (centres undefined)	inactive: 75%
CCOC(=O)c1c(C)[nH]c(C)c1S(=O)(=O)N(C)CC(=O)Nc1cccc(C(F)(F)F)c1	inactive: 69%
CCOC(=O)C1CCN(C(=O)Cn2ncc3c([nH]c4ccccc43)c2=O)CC1	inactive: 19%
Cc1cccc(C(=O)Nc2nc(-c3nnn(-c4cc(C)ccc4C)c3C)ns2)c1	inactive: 78%
Cc1ccc(-n2c(-c3ccc(Br)cc3)nc3c(cnn3-c3ccccc3)c2=O)cc1	inactive: 66%
O=C(Cn1c(=O)n(Cc2ccco2)c(=O)c2ccccc21)Nc1cccc(F)c1	inactive: 97%
COc1ccc(NC(=O)Cn2c(=O)n(Cc3ccco3)c(=O)c3sc4ccccc4c32)cc1OC	inactive: 95%
CCOc1cc(C#N)c(NC(=O)c2ccc(OC)c(S(=O)(=O)N3CCCCC3)c2)cc1OCC	inactive: 75%

SMILES	survival
CC(=O)c1ccc(NC(=O)c2cnc(N3CCCC3)nc2C)cc1	inactive: 80%
CC(C)(C)c1ccc(C(=O)N2CCC(C(=O)O)CC2)cc1	inactive: 109%
CCc1ccccc1NC(=O)Cn1c(=O)n(-c2ccccc2)c(=O)c2oc3ccccc3c21	inactive: 98%
c1ccc2[nH]c(CN3CCCCC3)nc2c1	inactive: 99%
Cc1c2cnn(-c3ccccc3)c(=O)c2c(C)n1CC(=O)Nc1ccccc1Br	inactive: 78%
COc1ccccc1N1CCN(S(=O)(=O)c2ccc(-c3coc(C)n3)cc2)CC1	inactive: 68%
Cc1ccc(Cn2c(C3CC3)nc3ccc(N)cc3c2=O)cc1	inactive: 112%
CCc1ccccc1NC(=O)CSc1nc2ccccc2n1CC(=O)N(C)C	inactive: 103%
O=C(C1CCCCC1)N(Cc1cccnc1)c1nc2ccc(Cl)cc2s1	inactive: 72%
Cc1ccc(N2CCN(C(=O)c3cn(C)c4ccc(S(=O)(=O)N5CCC(C)CC5)cc4c3=O)CC2C)cc1 (centres undefined)	inactive: 126%
CCN(C(=O)CSc1nc(-c2ccc(C(C)C)cc2)no1)c1ccccc1	inactive: 82%
O=C(Nc1nnc(S(=O)(=O)N2CCCc3ccccc32)s1)c1ccc(Cl)cc1	inactive: 19%
COc1ccc2c(c1)CC(C(=O)Nc1ccc(Br)c(C)c1)CO2 (centres undefined)	inactive: 65%
Cn1c(CCc2nc3ccccc3[nH]2)nnc1SCC#N	inactive: 103%
CCn1nnnc1SCC(=O)Nc1ccccc1	inactive: 102%
COc1ccc(C(=O)NCC(=O)OCc2cc(=O)n3nc(C4CCCCC4)sc3n2)cc1	inactive: 72%
Cc1ccccc1-c1nc(CS(=O)(=O)CC(=O)NCCCN2CCN(C)CC2)c(C)o1	inactive: 80%
Cc1nn(-c2ccccc2)c2sc(C(=O)N(Cc3ccco3)C(C)C(=O)NC3CCCCC3)cc12 (centres undefined)	inactive: 102%
COc1ccc(NC(=O)CSc2nncn3c2cc2occc23)c(OC)c1	inactive: 89%
COc1ccc(-n2nnc(-c3nc(-c4ccc5c(c4)OCO5)no3)c2C)cc1Cl	inactive: 90%
NC(=O)c1ccccc1NC(=O)COCC(=O)O	inactive: 108%
CCOCC(=O)Nc1nc2ccccc2s1	inactive: 106%
CCOC(=O)c1ccc(NC(=O)CCc2c(C)nc3cc(-c4ccc(OC)cc4OC)nn3c2C)cc1	inactive: 93%

SMILES	survival
Cc1ccc(SCCNC(=O)CN(c2cccc(C)c2C)S(C)(=O)=O)cc1	inactive: 67%
COc1cc(C(=O)Nc2ccc(-c3nc4cc(C)c(C)cc4o3)cc2)cc(OC)c1OC	inactive: 74%
CC(C)Oc1ccc(C(=O)N2CCC(c3nc4ccccc4s3)CC2)cc1	inactive: 82%
CC1=C(C(=O)NCc2cccc(Cl)c2)C2(CCCCCC2)OC1=O	inactive: 87%
CCOC(=O)c1c(C)oc2nc(C)nc(NCCc3ccc(OCC)cc3)c12	inactive: 70%
CC(=O)Nc1ccc(S(=O)(=O)N2CCC(n3c(C)nc4cccnc43)CC2)cc1	inactive: 76%
CCC(C)NC(=O)Cn1c(=O)n(-c2cc(OC)cc(OC)c2)c(=O)c2ccccc21 (centres undefined)	inactive: 94%
COc1ccc(NC(=O)CCCc2nnc3n(C(C)C)c(=O)c4sccc4n23)cc1Cl	inactive: 104%
Cc1ccc2c(CNCCc3ccco3)c(C(=O)O)n(Cc3ccc(F)cc3)c2c1	inactive: 66%
CCOc1ccc(CN(CCc2ccc3c(c2)OCO3)Cc2cc(OC)cc(OC)c2)cc1	inactive: 57%
O=C(CSc1nccn1Cc1ccco1)Nc1ccc(OC(F)(F)F)cc1	inactive: 73%
Cc1cc(=O)[nH]c2nnc(SCc3cccc(C(F)(F)F)c3)n12	inactive: 127%
CCOc1ccc(NC(=O)Cn2cc(C(=O)C3CC3)c3ccccc32)cc1	inactive: 78%
CCN1CCC(N(Cc2ccc(F)cc2)C(=O)Nc2ccc(C)c(F)c2)CC1	inactive: 87%
COc1ccc(C(=O)Nc2ccc(-c3nc4cc(C)ccc4o3)c(O)c2)cc1	inactive: 76%
CC(C)c1ccc(NC(=O)Cn2nnc(C(=O)NCCc3ccccc3)c2N)cc1	inactive: 82%
COc1cc(Cl)c(NC(=O)CN2C(=O)c3cccnc3Sc3ccccc32)c(OC)c1	inactive: 72%
Cc1nc(N2CCOCC2)c2c(C(=O)N3CCN(c4cccc(C(F)(F)F)c4)CC3)c(C)oc2n1	inactive: 79%
COc1ccc(NC(=O)C(Cc2ccccc2)NS(=O)(=O)c2ccc3c(c2)oc(=O)n3C)c(OC)c1 (centres undefined)	inactive: 158%
Cc1cccc2nc(-c3ccc(Cl)s3)c(Nc3ccc4c(c3)OCCO4)n12	inactive: 74%
COc1ccc(OC(=O)c2cc(-c3ccc4c(c3)OCCO4)on2)cc1	inactive: 109%
Cc1ccc(C)c(NC(=O)CSc2cn(CC(=O)N3CCCCC3)c3ccccc23)c1	inactive: 100%
CCOc1ccc(NC(=O)Cn2c(=O)nc(-c3ccccc3)c3ccccc32)cc1	inactive: 80%

SMILES	survival
Cc1ccc(OCC(=O)OCc2cc(=O)n3ccsc3n2)cc1C	inactive: 64%
COc1ccccc1N1CCN(c2ncc3c(n2)CCN(Cc2ccccc2C)C3)CC1	inactive: 63%
Cc1nc2ccc(S(=O)(=O)NCC(=O)NCc3ccc(Cl)cc3)cc2s1	inactive: 85%
Cc1nn(-c2ccccc2)c(-n2cccc2)c1C(=O)NCCCN1CCN(c2ccccc2F)CC1	inactive: 76%
CC1CCN(S(=O)(=O)c2ccc3[nH]ccc3c2)CC1	inactive: 89%
Brc1ccc(-c2cn3cc(Cc4ccccc4)sc3n2)cc1	inactive: 74%
O=C1NC(NS(=O)(=O)c2ccccc2)(C(F)(F)F)C(=O)N1CCc1ccccc1 (centres undefined)	inactive: 83%
CCOc1ccc(-c2cc3nc(C4CCN(C(=O)OC(C)(C)C)CC4)c(C(=O)Nc4cccc(Cl)c4C)cn3n2)cc1	inactive: 88%
Cn1cc(CCCC(=O)NCc2ccc(F)cc2)c2ccccc21	inactive: 86%
CCOC(=O)c1ccc(NC(=O)c2noc3c2CCCC3)cc1	active: -2%
CCN(c1ccccc1)c1ncnc2c1cnn2-c1ccc(OC)cc1	inactive: 64%
Cc1ccc2[nH]c3c(=O)n(CC(=O)N4CCN(c5ccccc5F)CC4)ncc3c2c1	inactive: 63%
O=C(CCC(=O)N1CCOc2ccccc21)NCc1cccs1	inactive: 83%
COc1ccc(Cn2c(CNC(=O)Cc3ccc(OC)c(OC)c3)nc3cccnc32)cc1	inactive: 72%
Cc1cc(N2CCN(C)CC2)nc2ccc(NC(=O)Nc3ccc(F)cc3)cc12	inactive: 78%
O=S(=O)(NCCc1nnc2ccc(SCc3cccc(Cl)c3)nn12)c1ccccc1	inactive: 70%
CC(=O)N1CCCc2cc(S(=O)(=O)N3CCCC(C(=O)Nc4ccc(F)cc4F)C3)ccc21 (centres undefined)	inactive: 83%
COc1ccc(-c2cc(C(F)(F)F)c(C#N)c(SCC(=O)Nc3cccc(C)c3)n2)cc1	inactive: 74%
O=C(NCC(c1ccco1)S(=O)(=O)c1ccc(Cl)cc1)c1ccc(C(F)(F)F)cc1 (centres undefined)	active: -1%
O=C(Cn1c(=O)n(Cc2ccco2)c(=O)c2sc3ccccc3c21)Nc1ccc(F)cc1F	inactive: 84%

Source: PubChem BioAssay AID463173 (ICCB-Longwood Screening Facility, Harvard Medical School, 2010)
